# Experimental data from PubChem BioAssay (NCATS).
# Some of the results follow. Shown are side measurements of this screen, not its main read-out; they come without a call. For some of these results: Compounds called inactive in the main read-out are mostly missing here. For some of these results: The note in brackets gives the kind of curve behind each potency; many fits are weak.
# Tests used:
# [1] = qHTS Assay for Lipid Storage Modulators (AID 1519); settings: Drosophila S3 cells, BODIPY lipid droplet/cell ratio, laser cytometry, cells loaded with oleic acid
# Procedure, shortened: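 Cells seeded at 5,000 per well were treated with compounds over a concentration series and loaded with oleic acid (400 uM, as added). Lipid droplet fluorescence (488 nm excitation, 500-530 nm channel) was read by laser-scanning cytometry and normalized to 20 uM Triacsin C.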
# [2] = qHTS Assay for Modulators of Human Peripheral Myelin Protein 22 (PMP22) Expression/Activity (AID 1967); settings: Cell-based PMP22 reporter, dual-color luciferase ratio
# Procedure, shortened: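 Mouse MSC80 Schwann line, Pmp22 promoter–CBG68 reporter, EF-alpha–CBR internal control. 24h compound exposure, 37 °C/5% CO2, DMEM + 10% FBS. Readout: corrected green/red luminescence ratio, normalized to untreated cells; concentration-response curves fitted and classified.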
# [3] = qHTS drug screen for cell cycle checkpoint inhibitors in PARPi-resistant BRCA-mutant ovarian cancer cell lines. (AID 1963452); settings: PEO1/OlaR viability, CellTiter-Glo luminescence, 96 h
# Procedure, shortened: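 PEO1, PEO4 and PEO1/OlaR ovarian cancer cells, 600 per well, exposed 96 h at 37C to a dilution series. Viability read by CellTiter-Glo luminescence, normalized to DMSO and empty wells; activity summarized as Z-AUC.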
# [4] = qHTS for identification of novel therapeutic agents for treatment of microphthalmiaassociated transcription factor (MiT) renal cell carcinoma (RCC) (AID 1963991); settings: CellTiter-Glo, 48 h; for z-score: stronger effect = lower value; for AC50: measured here: UOK145 cell viability
# Procedure, shortened: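 Three TFE3-fusion RCC cell lines (UOK109, UOK124, UOK145), 500 cells/well, were exposed to the 1912-compound MIPE 4.0 library for 48 hours at 37 C. Viability was read by CellTiter-Glo luminescence, normalised to DMSO (100%) and empty wells (0%), with 11-concentration curve fits.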
# [5] = qHTS assay for small molecule agonists of retinoid X receptor alpha signaling (AID 588544); settings: HEK293T RXRa-UAS-bla, beta-lactamase reporter, 18 h; 530 nm emission
# [6] = qHTS assay for small molecule antagonists of retinoid X receptor alpha signaling (AID 588546); settings: HEK293T RXRa-UAS-bla, beta-lactamase ratio, antagonist mode; measured here: W530 green channel, cytotoxicity proxy;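 note: cells stimulated with 9-cis-retinoic acid as agonist; % is set by controls: 0 for no effect and ±100 for the full control effect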
# Procedure, shortened: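 Beta-lactamase reporter inhibition, read as CCF4 fluorescence ratio (ex 405, em 460/530 nm) after 2 h at RT. HEK293T UAS-bla cells, 2500/well, were stimulated with 9-cis-RA at 500 or 100 nM final alongside test compound for 18 h at 37 C.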
# [7] = qHTS Validation Assay for Iinhibitors of HIV-1 Budding by Blocking the Interaction of PTAP/TSG101 (AID 485342); settings: TSG101-PTAP binding, fluorescence polarization, 4-point titration; measured here: FITC channel readout
# Procedure, shortened: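 FP read-out: FITC-PTAP peptide, 50 nM final, binding Tsg101 binding domain, 10 uM final; 20 min r.t.; 10 mM HEPES pH 7.5, 0.15 M NaCl, 0.01% Tween 20, 3 mM EDTA, 0.1 mM TCEP.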
# [8] = qHTS Validation Assay to Find Inhibitors of Chronic Active B-Cell Receptor Signaling (AID 485345); settings: ABC-DLBCL cells, chronic BCR signaling reporter
# Procedure, shortened: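 TMD8 ABC-DLBCL cells stably carrying doxycycline-inducible IkappaBalpha–green luciferase fusion plus unfused red luciferase; compounds 46 uM to 3 nM, 4 h at 37C with doxycycline. Corrected green/red luminescence ratio normalized to 10 uM MG-132 and basal cell wells; curves fitted.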
# [9] = Nrf2 qHTS screen for inhibitors: Validation (AID 493153); settings: A549 ARE-Fluc reporter, 18-24 h; AC50: CellTiter-Fluor fluorescence read, measured here: cytotoxicity CellTiter-Fluor AC50; viability change: measured here: cytotoxicity max response
# Procedure, shortened: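 Concentration-response on A549 ARE_Fluc reporter cells exposed 18-24 h at 37 C, 5% CO2. Cytotoxicity read first by CellTiter-Fluor fluorescence (Ex 405/Em 525), then Nrf2 inhibition by BugLite luminescence after 15 min.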
# [10] = qHTS assay for small molecule antagonists of peroxisome proliferator-activated receptor delta signaling (AID 588535); settings: HEK293T PPARd-UAS-bla, beta-lactamase FRET ratio, 18 h; 460 nm channel;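 note: cells co-treated with a PPAR-delta agonist as stimulator during compound exposure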
# Procedure, shortened: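 Fluorescence from CCF4-loaded GeneBLAzer PPAR-delta-UAS-bla HEK293T cells (2 hrs RT loading) quantified reporter inhibition after an 18 hr, 37 C compound exposure across a titration.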
# [11] = qHTS assay for small molecule antagonists of peroxisome proliferator-activated receptor gamma signaling (AID 588537); settings: HEK293 PPARg-UAS-bla, beta-lactamase ratio, antagonist mode; measured here: W460 blue channel
# Procedure, shortened: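 Fluorescence at 460 and 530 nm (405 nm excitation) reported beta-lactamase cleavage of CCF4 after 2 h room-temperature loading. HEK293 reporter cells in 1% charcoal/dextran-treated FBS had received compound and rosiglitazone for 16 h.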
# [12] = measured here: cell count channel max response
# [13] = measured here: lipid channel max response
# [14] = measured here: green reporter channel AC50, mouse Pmp22 promoter in mouse Schwann cells
# [15] = measured here: red reporter channel AC50, EF-alpha promoter control reporter in MSC80 mouse Schwann cells
# [16] = measured here: PEO1 parental viability
# [17] = TFE3-RCC UOK109 viability, measured here: UOK109 Z-AUC
# [18] = TFE3-RCC viability, measured here: UOK124 Z-AUC
# [19] = TFE3-RCC viability, measured here: UOK145 Z-AUC
# [20] = measured here: CBR control luciferase (viability counter)
# Tags give direction and shape of the fitted curve.
structure (smiles),measurement,setting,value
COc1cccc(-c2cc(=O)c3ccccc3o2)c1N,max response,[1]; [12],93.1%
same,max response,[1]; [13],122%
same,AC50,[2]; [14],"0.379 µM [rising, full curve, poor fit]"
same,AC50,[2]; [15],"1.69 µM [rising, full curve]"
same,AC50,[3]; [16],"24.5 µM [falling, single point]"
same,AC50,[3]; measured here: PEO4 viability,"21.9 µM [falling, single point]"
same,z-score,[4]; [17],-0.599
same,z-score,[4]; [18],0.3
same,z-score,[4]; [19],-0.374
same,AC50,[4]; TFE3-RCC viability,"20.9 µM [falling, partial curve]"
CN[C@H](CC(C)C)C(=O)N[C@H]1C(=O)N[C@@H](CC(N)=O)C(=O)N[C@H]2C(=O)N[C@H]3C(=O)N[C@H](C(=O)N[C@H](C(=O)O)c4cc(O)cc(O)c4-c4cc3ccc4O)[C@H](O)c3ccc(c(Cl)c3)Oc3cc2cc(c3O[C@@H]2O[C@H](CO)[C@@H](O)[C@H](O)[C@H]2O[C@H]2C[C@](C)(N)[C@H](O)[C@H](C)O2)Oc2ccc(cc2Cl)[C@H]1O,max response,[1]; [12],44.9%
same,max response,[1]; [13],47.3%
same,AC50,[3]; [16],"7.56 µM [rising, single point]"
Nc1nc(OCc2ccccc2)c2[nH]cnc2n1,max response,[1]; [12],91.5%
same,max response,[1]; [13],97.8%
same,z-score,[4]; [17],0.513
same,z-score,[4]; [18],1.17
same,z-score,[4]; [19],0.731
CC(O)[C@@H](O)[C@H]1CNc2nc(N)[nH]c(=O)c2N1 (stereo not given in full),max response,[1]; [12],-36.2%
same,max response,[1]; [13],-37.1%
same,AC50,[2]; [15],"84.9 µM [falling, single point]"
CCC1(c2ccccc2)C(=O)NCNC1=O,max response,[1]; [12],50.9%
same,max response,[1]; [13],50.3%
same,AC50,[3]; [16],"1.74 µM [rising, partial curve]"
same,z-score,[4]; [17],-0.0287
same,z-score,[4]; [18],0.998
same,z-score,[4]; [19],-0.559
same,AC50,[4]; TFE3-RCC viability,"6.62 µM [falling, full curve]"
NCCNC(=O)c1ncsc1-c1cccc(F)c1,max response,[1]; [12],67.6%
same,max response,[1]; [13],69.5%
same,AC50,[2]; [15],"84.9 µM [falling, single point]"
CCCCN1CCC(n2c(=O)[nH]c3ccccc32)CC1,max response,[1]; [12],47.1%
same,max response,[1]; [13],45.7%
same,AC50,[2]; [15],"95.3 µM [falling, single point]"
CCOC(=O)C12CC1/C(=N/O)c1ccccc1O2 (stereo not given),max response,[1]; [12],31%
same,max response,[1]; [13],30.6%
same,AC50,[2]; [15],"75.7 µM [falling, partial curve, poor fit]"
CC(=O)Oc1ccccc1C(=O)O,max response,[1]; [12],44.3%
same,max response,[1]; [13],46.8%
same,max response,[5],-13.5%
same,max response,[6],-4.87%
same,z-score,[4]; [17],0.817
same,z-score,[4]; [18],0.546
same,z-score,[4]; [19],0.187
same,AC50,[4]; TFE3-RCC viability,"29.6 µM [falling, single point]"
COC(=O)[C@H]1[C@H]2C[C@H]3c4[nH]c5ccccc5c4CCN3C[C@H]2CC[C@@H]1O,max response,[1]; [12],45.9%
same,max response,[1]; [13],42.1%
same,AC50,[2]; [15],"75.7 µM [falling, single point]"
O=C(O)C1=CCNCC1,max response,[1]; [12],43.4%
same,max response,[1]; [13],35.2%
same,AC50,[7],"89.1 µM [rising, single point]"
O=C1C2C=CC=CC2=NC(=S)N1CCN1CCC(=C(c2ccc(F)cc2)c2ccc(F)cc2)CC1 (stereo not given),max response,[1]; [12],45.4%
same,max response,[1]; [13],35.9%
same,AC50,[2]; [14],"84.9 µM [falling, single point]"
same,AC50,[2]; [15],"84.9 µM [falling, single point]"
NC1(C(=O)O)CC1,max response,[1]; [12],42.9%
same,max response,[1]; [13],42.2%
same,AC50,[2]; [15],"84.9 µM [falling, single point]"
CCCCC#Cc1nc(N)c2ncn([C@@H]3O[C@H](C(=O)NCC)[C@@H](O)[C@H]3O)c2n1,max response,[1]; [12],-21.5%
same,max response,[1]; [13],-20.3%
same,AC50,[2]; [14],"84.9 µM [falling, single point]"
same,AC50,[2]; [15],"84.9 µM [falling, single point]"
CCCN(CCc1ccccc1)C1CCc2c(O)cccc2C1 (stereo not given),max response,[1]; [12],51.8%
same,max response,[1]; [13],54.5%
same,AC50,[2]; [14],"84.9 µM [falling, single point]"
same,AC50,[2]; [15],"84.9 µM [falling, single point]"
COc1cccc(OC)c1OCCNCC1CSc2ccccc2O1 (stereo not given),max response,[1]; [12],70.7%
same,max response,[1]; [13],75.2%
same,AC50,[2]; [14],"67.5 µM [falling, partial curve]"
same,AC50,[2]; [15],"60.1 µM [falling, partial curve]"
same,AC50,[8]; [20],"32.6 µM [rising, single point]"
O=C1NC(=O)c2cc(Nc3ccccc3)c(Nc3ccccc3)cc21,max response,[1]; [12],59.6%
same,max response,[1]; [13],57.1%
same,AC50,[2]; [14],"47.8 µM [falling, partial curve]"
same,AC50,[2]; [15],"37.9 µM [falling, partial curve]"
same,AC50,[8]; measured here: CBG/CBR ratio read-out,"13 µM [falling, partial curve]"
same,AC50,[8]; [20],"18.4 µM [falling, single point]"
same,viability change,[9],-10.2%
COc1ccc(Cl)cc1C(=O)NCCc1ccc(S(=O)(=O)NC(=O)NC2CCCCC2)cc1,max response,[1]; [12],94.8%
same,max response,[1]; [13],122%
same,AC50,[2]; [15],"84.9 µM [falling, single point]"
same,viability change,[9],0.986%
same,max response,[10],204%
same,AC50,[11],"39.8 µM [falling, partial curve, poor fit]"
same,max response,[5],41.6%
